# From PMC4336329 (PLoS ONE, 2015)
# Out of some 310,000 compounds screened, about 14,000 (4.5%) showed an effect of 50% or more. Effects have a minus sign here. The list shows a part of the results.
# Target: human ether-à-go-go-related gene (hERG) potassium channel (human, UniProt Q12809)
# Assay: primary screen, population patch clamp on CHO cells stably expressing hERG
# 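Note: peak tail current of the secondary pulse compared with the same well before compound.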
# Chain of human ether-à-go-go-related gene (hERG) potassium channel (Q12809 whole entry, looked up): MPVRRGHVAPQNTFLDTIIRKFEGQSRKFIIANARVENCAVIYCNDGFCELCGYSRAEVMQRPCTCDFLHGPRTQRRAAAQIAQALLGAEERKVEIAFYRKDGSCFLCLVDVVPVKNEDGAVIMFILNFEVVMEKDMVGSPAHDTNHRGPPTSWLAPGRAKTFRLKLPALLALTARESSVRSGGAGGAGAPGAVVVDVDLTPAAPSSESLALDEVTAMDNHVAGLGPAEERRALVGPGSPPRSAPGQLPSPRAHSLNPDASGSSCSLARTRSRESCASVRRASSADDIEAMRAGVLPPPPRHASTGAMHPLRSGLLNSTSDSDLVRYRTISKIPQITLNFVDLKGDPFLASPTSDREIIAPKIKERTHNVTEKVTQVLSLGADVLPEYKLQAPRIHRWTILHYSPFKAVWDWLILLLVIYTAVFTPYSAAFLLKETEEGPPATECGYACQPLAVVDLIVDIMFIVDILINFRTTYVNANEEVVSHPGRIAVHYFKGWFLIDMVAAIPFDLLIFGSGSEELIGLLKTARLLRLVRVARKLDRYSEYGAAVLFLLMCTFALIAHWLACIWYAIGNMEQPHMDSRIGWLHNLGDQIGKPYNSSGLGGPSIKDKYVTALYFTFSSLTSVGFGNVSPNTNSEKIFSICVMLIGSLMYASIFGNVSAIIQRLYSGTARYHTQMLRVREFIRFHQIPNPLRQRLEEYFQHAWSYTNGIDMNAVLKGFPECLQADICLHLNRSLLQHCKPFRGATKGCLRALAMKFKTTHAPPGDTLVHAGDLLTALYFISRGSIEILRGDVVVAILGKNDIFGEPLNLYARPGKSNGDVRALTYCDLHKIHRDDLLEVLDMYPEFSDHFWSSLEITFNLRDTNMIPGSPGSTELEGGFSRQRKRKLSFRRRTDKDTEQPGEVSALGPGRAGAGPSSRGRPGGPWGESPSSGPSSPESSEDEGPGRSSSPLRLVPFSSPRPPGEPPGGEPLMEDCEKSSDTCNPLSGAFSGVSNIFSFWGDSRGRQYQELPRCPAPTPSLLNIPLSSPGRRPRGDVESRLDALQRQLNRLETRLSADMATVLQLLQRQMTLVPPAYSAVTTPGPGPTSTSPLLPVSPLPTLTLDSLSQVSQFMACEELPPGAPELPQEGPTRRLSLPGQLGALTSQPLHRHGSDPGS
row,SMILES,"hERG current change (%, negative = inhibition) at 10uM [%]"
1,COc1cc(CC(=O)N(c2ccccc2)c2nc(C)cs2)cc(OC)c1OC,-14.8
2,CC1=CC(=C2C(=O)NC(=S)NC2=O)C=C(C(F)(F)F)N1C,8.8
3,CCOc1ccc(CN(C)CC(=O)c2c(N)n(Cc3ccccc3)c(=O)n(CC)c2=O)cc1OC,-75.5
4,COc1cccc2cc(C(=O)Oc3ccccc3)c(=O)oc12,-1.84
5,CC1Cc2cc(/C(O)=C3/C(=O)C(=O)N(CCN4CCOCC4)C3c3ccc(C(C)C)cc3)ccc2O1 (stereo not shown),6.49
6,c1ccc(CSc2nc3ccccc3[nH]2)cc1,17.6
7,CN(C(=O)COC(=O)c1ccc([N+](=O)[O-])cc1N)c1ccccc1,9.38
8,Cc1ccccc1NC(=O)CSc1nc(-c2ccccc2)cc(=O)[nH]1,24.9
9,Cn1c(CNC(=O)c2cccs2)nnc1SCC(=O)Nc1ccccc1,1.81
10,C[C@H](NC(=O)[C@@H]1Cc2ccccc2CN1)C(=O)Nc1ccc2c(c1)OCCO2,3.18
11,Cc1ccc(C(=O)NCCC(=O)NCc2cc(=O)n(C)c(=O)n2C)cc1,3.48
12,COC(=O)c1ccccc1NC(=O)CNc1ccc(F)c(S(=O)(=O)N2CCOCC2)c1,-38.1
13,Clc1cccc(CN2CCCCCC2)c1Cl,0.798
14,Cc1cccc(C)c1NC(=O)CSc1nnc([C@@H]2CCCN2C(=O)OC(C)(C)C)o1,2.31
15,COc1cc(CNC(=O)C2CCC(=O)N(C3CCCCCC3)C2)cc(OC)c1 (stereo not shown),-14.9
16,COc1ccc(Cl)cc1/C=N/NC(=O)c1c(-c2ccccc2)noc1C,2.15
17,N/C(=N\OC(=O)c1ccccc1Cl)c1ccncc1,19.1
18,Nc1nc(Sc2ccc(C(F)(F)F)cc2[N+](=O)[O-])n[nH]1,-3.27
19,COc1ccc(N2CCN(C(c3cccs3)c3nnnn3C3CCCC3)CC2)cc1 (stereo not shown),-19.3
20,CCCCN(C(=O)c1ccccc1OCc1ccc(F)cc1)c1c(N)n(CC(C)C)c(=O)[nH]c1=O,-5.4
21,COC(=O)c1ccc(NC(=O)CSc2nnc(-c3cccnc3)o2)cc1,-0.978
22,CCNc1nn2ccccc2c1/C=C(\C#N)C(=O)OCC,-4.06
23,Cc1oc(C(=O)O)cc1COc1cccc2cccnc12,-19.2
24,CCOc1cc(-c2noc(CCC(=O)NCC3CCCO3)n2)ccc1OC (stereo not shown),-3.08
25,Cc1cc(C)cc(N2CC(C(=O)Nc3cc(C)on3)CC2=O)c1 (stereo not shown),9.42
26,Cn1c(/C=C/N(Cc2ccccc2)c2ccccc2)c([N+](=O)[O-])c(=O)n(C)c1=O,-24.1
27,CCc1nc(SCCO)c2oc3ccccc3c2n1,2.63
28,COc1ccc(-c2cc3nc(C)cc(C)n3n2)cc1,-2.36

row,SMILES,"hERG current change (%, negative = inhibition) at 10uM [%]"
1,COC(=O)C1=C(c2ccc(F)cc2OCc2ccccc2)C[C@@H]2CC[C@H]1N2C(=O)NCc1ccc(Br)cc1,19.2
2,CCOC(=O)c1c(C)[nH]c(C(=O)COC(=O)Cn2cc(C(F)(F)F)ccc2=O)c1C,5.33
3,CCn1c(SCC(=O)Nc2ccccc2)nnc1-c1ccc(S(=O)(=O)N2CCOCC2)cc1,-16.5
4,Cn1c(C(=O)NCc2ccccn2)cc2c(=O)n(C)c3ccccc3c21,2.2
5,OC(CN1c2ccccc2Sc2ccccc21)Cn1nnc2ccccc21 (stereo not shown),15.8
6,Cl.Nc1nonc1C(=O)NCCNCc1ccccc1OCc1ccccc1F,-60.5
7,O=C(N=Nc1c(O)n(Cc2ccccc2)c2ccccc12)c1cc2ccccc2cc1O,6.28
8,O=C(O)C1CCC(N2C(=O)C3CCCCC3C2=O)CC1 (stereo not shown),11.2
9,c1ccc(-c2nc(-c3cccs3)[nH]c2-c2ccccc2)cc1,22.5
10,O=C(COc1ccc(-c2ccccc2)cc1)N/N=C/c1cccnc1,7.95
11,COc1ccccc1CCNC(=O)C(=O)NCCC1CCCCN1S(=O)(=O)c1ccccc1 (stereo not shown),-12.6
12,Clc1ccc(SCc2cc(-c3ccccc3)no2)cc1,-5.94
13,COc1ccc(C(CNC(=O)Cc2ccccc2)N2CCCCC2)cc1 (stereo not shown),-1.26
14,CCc1cc(C(=O)OC)c(NC(=O)CN2CCN(C(=O)C3CCCO3)CC2)s1 (stereo not shown),-47.2
15,CCN(Cc1cccc(OC)c1)CC1CCCN(CCc2cccc(OC)c2)C1 (stereo not shown),-47.3
16,c1ccc(C(Cc2nc(-c3cccnc3)no2)c2ccccc2)cc1,16.9
17,S=C1NCN(Cc2ccccc2)CN1,5.01
18,COc1ccc(C(=O)COC(=O)c2ccc(NC(C)=O)cc2)cc1[N+](=O)[O-],0.979
19,N#Cc1c(NC(=O)C2CC(Cl)=CCC2C(=O)O)sc2c1CCCCC2 (stereo not shown),-25.8
20,CCOC(=O)C1CCCN(Cc2nc(C3CC3)no2)C1 (stereo not shown),13.5
21,COc1cc(OC)cc(C(=O)NC(=S)N2CCCCCC2)c1,13.3
22,Cc1c(C(=O)Nc2cccc([N+](=O)[O-])c2)cnn1-c1ccccc1,-12.7
23,CC1CC2(C)CC(C)C1(COC(=O)Nc1ccccc1)CO2 (stereo not shown),5
24,N#Cc1ccc(-c2ccc(OCC(=O)NCCc3ccccc3)cc2)cc1,9.16
25,O=C(c1cc(C2CC2)nn1-c1ccccc1)N1CCN(Cc2ccc(Cl)cc2)CC1,-32.1
26,O=C(COC(=O)c1ccccc1O)Nc1ccc(S(=O)(=O)N2CCCCC2)cc1,3.29
27,CCOC(=O)C1CCN(c2cc(=O)n(-c3ccc(OC)cc3)c(=O)[nH]2)CC1,6.19
